Some of the results follow. Sequences were assembled here from the parent chain. Inactive controls read about 0.05.
B1: TEV protease; numbered along this chain (parent)
chain: MGESLFKGPRDYNPISSSICHLTNESDGHTTSLYGIGFGPFIITNKHLFRRNNGTLVVQSLHGVFKVKDTTTLQQHLVDGRDMIIIRMPKDFPPFPQKLKFREPQREERICLVTTNFQTKSMSSMVSDTSCTFPSGDGIFWKHWIQTKDGQCGSPLVSTRDGFIVGIHSASNFTNTNNYFTSVPKNFMELLTNQEAQQWVSGWRLNADSVLWGGHKVFMVKPEEPFQPVKEATQL

Variants of: B1
Experiment: raw area under fraction-flipped curve 0-4 h after induction (AUC4h, not background-subtracted), DNA-recorder readout of cleavage of the substrate (dimensionless); higher = more cleavage of the substrate by the protease variant
Details: temperature: 34 °C; time window: 0-4 h after rhamnose induction
Protocol: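 In vivo DNA recorder in E. coli TOP10(DE3) ΔrhaA at 34 °C. Each TEVp single-site mutant (parent TEVp 0) is paired with a single-site variant of the 7-mer TEVs (canonical ENLYFQ|S). The substrate sits between flexible linkers in a Bxb1-sfGFP-TEVs-SsrA fusion, so cleavage stabilises Bxb1 and speeds flipping of a recombination array, read by NGS. The value is the raw area under the fraction-flipped curve over 0-4 h after rhamnose induction (AUC4h), with ≥20 reads per time point. It is not background-subtracted; inactive controls average about 0.047.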
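Note: Bxb1 expression induced with 0.2% (w/v) L-rhamnose at OD600 near 0.5, cultures sampled hourly, flipped fraction per protease–substrate barcode pair counted by paired-end Illumina sequencing.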

Row | Variant | area with substrate EALYFQS | area with substrate ECLYFQS | area with substrate EDLYFQS | area with substrate EELYFQS | area with substrate EFLYFQS | area with substrate EGLYFQS | area with substrate EHLYFQS | area with substrate EILYFQS | area with substrate EKLYFQS | area with substrate EMLYFQS | area with substrate EQLYFQS | area with substrate ESLYFQS | area with substrate ETLYFQS | area with substrate EVLYFQS | area with substrate EWLYFQS | area with substrate EPLYFQS | area with substrate ERLYFQS | area with substrate ELLYFQS | area with substrate EYLYFQS
1 | T174R | 0.141 | 0.0755 | 0.117 | 0.117 | 0.0779 | 0.103 | 0.0839 | 0.0695 | 0.0912 | 0.101 | 0.129 | 0.0901 | 0.139 | 0.0726 | 0.0916 | – | – | – | –
2 | T174L | 0.149 | 0.09 | – | – | – | – | – | 0.0918 | – | – | 0.11 | – | – | – | – | 0.0855 | 0.0555 | – | –
3 | N186Y | 0.122 | 0.0974 | – | – | – | – | – | – | – | – | – | 0.0978 | – | 0.0939 | 0.0977 | – | – | – | –
4 | N186A | 0.132 | – | 0.128 | – | – | – | – | 0.114 | 0.0756 | – | – | 0.119 | – | 0.0954 | – | – | – | – | –
5 | G166C | 0.0456 | 0.0602 | – | 0.0479 | – | – | 0.0497 | 0.0718 | 0.0447 | 0.0501 | 0.0367 | 0.0534 | – | 0.0465 | 0.058 | – | 0.0615 | 0.0398 | 0.0568
6 | G153V | 0.049 | 0.044 | – | 0.0498 | – | – | 0.0523 | 0.0558 | – | – | 0.0495 | 0.104 | – | 0.0379 | – | – | 0.0381 | – | 0.0559
7 | L156N | 0.0564 | 0.0573 | 0.0583 | 0.0498 | 0.0461 | 0.0781 | 0.0646 | 0.044 | 0.0392 | 0.0616 | 0.0648 | 0.0534 | 0.0497 | 0.0484 | 0.0496 | – | 0.0538 | – | 0.0497
8 | P155Q | 0.0554 | 0.0483 | 0.0485 | 0.0661 | 0.0463 | 0.0505 | 0.0495 | 0.0497 | 0.0497 | 0.048 | 0.0553 | 0.053 | – | 0.0505 | 0.0524 | 0.0587 | 0.0568 | 0.0064 | 0.0449
9 | T132M | 0.107 | 0.098 | 0.117 | 0.104 | 0.12 | 0.104 | 0.0978 | 0.0987 | 0.117 | 0.116 | 0.106 | 0.112 | 0.106 | 0.0878 | 0.0486 | 0.0999 | 0.0971 | 0.0917 | 0.121
10 | T132D | 0.0624 | 0.0509 | 0.056 | 0.0634 | 0.0614 | 0.0555 | 0.0587 | 0.0384 | 0.0631 | 0.0473 | 0.0501 | 0.0594 | 0.0593 | 0.0563 | 0.054 | 0.0607 | 0.0652 | 0.056 | –
11 | S127T | 0.102 | 0.151 | 0.1 | 0.122 | 0.059 | 0.0927 | 0.0891 | 0.0994 | 0.11 | 0.103 | – | 0.104 | – | 0.105 | 0.0902 | 0.151 | 0.0904 | 0.11 | –
12 | C152Q | 0.0589 | – | – | – | 0.0743 | – | – | 0.0594 | – | – | – | 0.0692 | – | 0.0594 | 0.0594 | 0.0558 | – | – | –
13 | C152H | 0.0746 | – | – | 0.0621 | – | – | – | – | – | – | 0.0502 | 0.0625 | – | 0.0603 | 0.0668 | – | – | – | –
14 | C152R | 0.0664 | – | 0.07 | 0.0577 | – | 0.0448 | – | 0.0664 | – | 0.0606 | 0.053 | 0.0645 | – | 0.0413 | 0.0471 | – | 0.0632 | – | 0.0538
15 | T176H | 0.0664 | – | – | 0.0755 | – | – | 0.0659 | 0.0591 | – | 0.0388 | – | 0.0686 | – | – | – | 0.088 | 0.0637 | 0.0585 | –
16 | T176E | 0.0886 | 0.0867 | 0.107 | 0.0827 | 0.0773 | – | 0.0559 | 0.0633 | 0.0656 | – | 0.0804 | 0.073 | 0.0776 | 0.0835 | 0.0753 | – | 0.08 | – | 0.0872
17 | T176G | 0.0669 | 0.0674 | 0.0704 | – | – | 0.0467 | – | 0.0406 | – | 0.0754 | 0.0674 | 0.0583 | – | 0.0838 | 0.0804 | – | – | – | –
18 | L191C | 0.107 | 0.0829 | 0.0806 | 0.0938 | 0.0789 | 0.0841 | 0.0677 | 0.0707 | 0.0788 | – | 0.101 | 0.0867 | – | 0.0845 | 0.0743 | 0.106 | 0.0822 | 0.093 | 0.0791
19 | V157G | 0.0642 | 0.0606 | 0.0572 | 0.0651 | 0.0693 | 0.0614 | 0.0553 | 0.0474 | 0.0623 | – | – | 0.053 | 0.0519 | – | – | 0.0484 | 0.0352 | 0.0517 | –
20 | Y179M | 0.0622 | – | – | 0.0638 | – | 0.0559 | 0.048 | 0.0534 | – | 0.0573 | – | 0.11 | – | – | 0.0631 | – | 0.0308 | 0.0711 | –
21 | S124K | 0.122 | 0.11 | 0.132 | 0.124 | 0.106 | 0.0925 | 0.109 | 0.0911 | 0.164 | 0.114 | 0.142 | 0.105 | 0.134 | 0.0975 | 0.103 | 0.112 | 0.092 | 0.0893 | –
22 | P134Y | 0.0894 | 0.0737 | 0.0974 | 0.0383 | 0.0753 | 0.068 | 0.0749 | 0.0819 | 0.0592 | – | 0.0884 | 0.0811 | 0.0646 | 0.12 | 0.0339 | 0.0808 | 0.0643 | 0.0644 | 0.0738
23 | P134C | 0.0968 | 0.0781 | 0.106 | 0.0998 | 0.0895 | 0.0735 | 0.0955 | 0.0264 | 0.075 | 0.088 | 0.0945 | 0.084 | – | 0.086 | 0.0744 | – | 0.0783 | 0.0648 | 0.0851
24 | P134T | 0.096 | – | – | – | – | – | 0.0854 | – | – | – | – | 0.0875 | 0.0606 | 0.0852 | 0.0959 | – | 0.0771 | – | –
25 | V165C | 0.116 | 0.0817 | – | 0.105 | 0.0877 | 0.0751 | 0.0973 | 0.0746 | 0.0996 | 0.0711 | – | 0.0884 | 0.106 | 0.0745 | – | 0.105 | – | 0.0805 | –
26 | M125D | 0.121 | 0.092 | 0.105 | 0.118 | 0.106 | 0.0803 | 0.0985 | 0.085 | 0.0966 | 0.103 | 0.105 | 0.114 | 0.093 | 0.0961 | – | – | – | 0.094 | –
27 | H168P | 0.0507 | 0.0576 | 0.0443 | 0.0466 | – | 0.0485 | – | 0.0569 | – | 0.0669 | 0.0612 | 0.06 | – | 0.0355 | 0.0518 | 0.058 | 0.0531 | – | 0.0694
